The campaign covered roughly 150,000 compounds. About 540 (0.36%) showed an effect of 50% or more. Some of the results follow.
Test system: Plasmodium falciparum
Assay: Primary screen in NF54 nanoGlo assay, in single point, at 2uM, 72h; a lower Z score goes with more inhibition
Format: functional, Erythrocyte
Settings: timepoint 72 hour

Row | SMILES | % Inhibition [%] | Z score
1 | C[C@@H](Cn1cccn1)OC(=O)c1ccc2nncn2c1 | 2 | -0.44
2 | O=C(Cc1ccsc1)Nc1cccc(S(=O)(=O)N2CCCC2)c1 | -32 | 3.77
3 | CCc1c(C)cc(C(=O)N2CC[C@](C)(O)[C@H](CC)C2)c(=O)n1C | -5 | 0.73
4 | CC(c1nnnn1C1CC1)N1CC2(CCC2)C1C1CCCO1 (configuration not stated) | 12 | -1.56
5 | COCC1(N(C)C(=O)c2cccc(-c3cc(C)nc(C)c3)c2)CC1 | -7 | 1.26
6 | CC1(c2ccccc2)CC(NC(=O)N2CCN(CCO)C(C)(C)C2)C1 (configuration not stated) | -1 | 0.11
7 | CC(C)(O)CN1CCN(C(=O)CCOc2ccccc2Cl)CC1 | 4 | -0.57
8 | O=C(Nc1ccncc1F)NC1CCCC2OCCC12 (configuration not stated) | -13 | 1.81
9 | CCC1=C(C(=O)NCc2ccnc(OC3CCC3)c2)CCCO1 | -6 | 0.57
10 | COc1cc(Cl)cc(CN2C[C@H]3CC[C@@H](C2)[C@@H]3N)c1OC(C)C | -10 | 1.33
11 | Cc1nnc(CNC(=O)C2(c3cccc(Cl)c3)CC(C)C2)s1 (configuration not stated) | -3 | 0.48
12 | CC(C)CC(=O)N1CCC2(CC1)OC[C@@H](C(=O)N1CCOCC1)N2C(=O)c1ccc(F)cc1 | -10 | 1.32
13 | CC(C)(C)n1ncn(C2CCCC2)c1=O | -11 | 1.1
14 | FCC[C@H]1CN(c2ncnc(-c3ccccc3)n2)CCO1 | -5 | 0.57
15 | O=C1CC[C@@]2(CCCO2)CCN1Cc1cncn1C1CC1 | -13 | 1.81
16 | C[C@H](NCc1cnns1)c1nc(C2CCCCC2)no1 | 4 | -0.49
17 | C[C@H](N1CCN(Cc2ncccc2C(F)(F)F)CC1)C(F)(F)F | -6 | 0.52
18 | CC(C)c1nn(C)c2sc(C(=O)Nc3cc(C(=O)O)cs3)cc12 | -6 | 0.63
19 | CC(CCc1ccccc1)NC1CS(=O)(=O)CC1O (configuration not stated) | -6 | 0.84
20 | CN(Cc1cscn1)[C@H]1CCCC[C@H]1C(F)(F)F | -8 | 1.34
21 | CCOC(=O)c1ccc(N2CCN(Cc3ccccc3)CC2)c(NC(=O)COc2ccc(Cl)cc2Cl)c1 | -11 | 1.63

Row | SMILES | % Inhibition [%] | Z score
22 | CCC1CN(C(=O)C2CCOC2)C(CC)CN1Cc1ccccc1 (configuration not stated) | -9 | 0.96
23 | CC[C@H](C)N(CC(=O)N1CCCN(c2ccc(-c3cccc(OC)c3)nn2)CC1)C(=O)COC | -14 | 1.25
24 | CCS(=O)(=O)CCNC(=O)c1ccccc1-c1nc[nH]n1 | -5 | 0.56
25 | C[C@@]12CO[C@@H](CNC(=O)C3CCCC3)O[C@@H]1CC[C@]1(C)[C@@H]2CC[C@@H](O)[C@H]1CC(=O)N1CCCC1 | -5 | 0.63
26 | FC(F)(F)c1c2cnccc2nn1Cc1ccn(-c2ccccc2)n1 | -42 | 4.94
27 | CN1CCC(C(=O)N[C@H]2C[C@H](c3cccc(C(F)(F)F)c3)C2)CC1 | 0 | -0.02
28 | CCN1C(=O)[C@]2(Nc3ccccc3C(=O)N2CCN2CCOCC2)c2ccccc21 | -10 | 1.37
29 | NC(=O)c1ccc(S(=O)(=O)Oc2ccc(-c3ccccc3)cc2Cl)cc1 | 2 | -0.24
30 | Cc1ccc(CN(C(=O)c2ccccc2C)c2cccc(CC(=O)NCc3cccnc3)c2)cc1 | 2 | -0.3
31 | O=C(Cc1ccon1)c1ccc(O)cc1O | -5 | 0.89
32 | CC(C)(C)C(=O)NC1CCCCCCC1 | -11 | 1.6
33 | c1ccc(-c2nc3c(c(NCCCc4nnn[nH]4)n2)CCNCC3)cc1 | -9 | 1.73
34 | O=C1N(C2CCOCC2)C[C@H]2CN(Cc3ccc(C(F)(F)F)cc3)CCN12 | -1 | 0.19
35 | O=C1NCCCCCN(C(=O)NCc2ccc(F)cc2)[C@H]2CCCC[C@@H]12 | -12 | 1.58
36 | CNC(=O)N1CCC[C@H]1c1nc(CCOCC2CCCC2)no1 | -13 | 1.71
37 | Cc1nc(-c2cc(NC(=O)c3ccccc3)c(C)s2)no1 | -11 | 0.93
38 | Cc1ccc(NC(=O)c2ccccc2O[C@@H](C)C(=O)c2ccc(C)cc2)cc1 | -18 | 2.62
39 | Cc1cccc(N2CCN(CCCNC(=O)C3CCN(c4nc5ccc(C)cc5[nH]4)CC3)C[C@@H]2C)c1 | 0 | 0.09
40 | COc1ccccc1CN1CCC2(CC1)c1ccccc1[C@@H](NC(=O)c1ccsc1)[C@@H]2OC | -12 | 1.49
41 | CCOc1ccncc1S(=O)(=O)N1CCCC[C@@H]1CNC(=O)Nc1ccccc1 | -32 | 3.77
